In all, about 33,000 sequences were measured (“E-score (-0.5 to 0.5)”: median about -0.054, highest 2% from about 0.35 on). The list shows a part of the results.
Each sequence was assayed against T1, Stb5 (UniProt P38699) (assay: PBM E-score (8-mer binding enrichment) (E-score (-0.5 to 0.5)); higher = stronger / more preferred TF binding; most listed sequences are background and not binding sites). Details: protein concentration: 200 nM; construct: GST-full length.
T1 sequence: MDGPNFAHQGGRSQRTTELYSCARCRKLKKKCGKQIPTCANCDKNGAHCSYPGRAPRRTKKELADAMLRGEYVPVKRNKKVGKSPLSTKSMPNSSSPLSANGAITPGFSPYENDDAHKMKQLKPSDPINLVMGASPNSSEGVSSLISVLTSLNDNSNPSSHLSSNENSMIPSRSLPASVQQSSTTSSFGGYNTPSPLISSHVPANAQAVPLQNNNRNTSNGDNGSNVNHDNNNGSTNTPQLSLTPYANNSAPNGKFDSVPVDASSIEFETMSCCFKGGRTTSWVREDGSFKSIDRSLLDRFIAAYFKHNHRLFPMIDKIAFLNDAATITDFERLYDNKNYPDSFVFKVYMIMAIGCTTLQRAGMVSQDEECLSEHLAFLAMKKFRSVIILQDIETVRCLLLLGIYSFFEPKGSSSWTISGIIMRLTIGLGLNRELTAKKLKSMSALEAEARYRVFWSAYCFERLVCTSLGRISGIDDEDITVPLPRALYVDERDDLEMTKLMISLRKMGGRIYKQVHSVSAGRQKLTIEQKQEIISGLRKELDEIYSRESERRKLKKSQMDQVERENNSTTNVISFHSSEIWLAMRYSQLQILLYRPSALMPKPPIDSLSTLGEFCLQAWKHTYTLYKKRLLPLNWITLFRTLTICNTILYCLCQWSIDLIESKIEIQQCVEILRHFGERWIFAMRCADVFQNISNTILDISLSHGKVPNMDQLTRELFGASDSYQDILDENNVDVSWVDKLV
Outline: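 PURExpress in vitro transcription/translation supplied GST-tagged yeast transcription factors, either full-length or DNA-binding domain. Applied at about 100-200 nM to universal all-10-mer Agilent arrays double-stranded by primer extension, the bound protein was detected with fluorescent anti-GST. E-scores, modified Wilcoxon-Mann-Whitney statistics, were given by the Universal PBM Analysis Suite to ungapped eight-base words pooled with their reverse complements after masliner normalisation.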

Sequence	PBM E-score
CCTTTACC	0.0697
AAATAATC	0.0386
ACGCGTTC	-0.105
TGGGCAAA	-0.127
CGACTCCG	0.252
AAAGCGCA	0.113
CTAAAATA	0.0941
GAGCCATC	-0.246
CCACGAAA	-0.155
CCCTCCCG	-0.028
AACTCCCG	0.248
TTACTCAA	0.0261
CATGCCAA	-0.213
ATGAAAGA	-0.0982
ACTCGGCC	0.139
CTTCCCCC	-0.119
ATGCATAC	-0.308
CGAAACGA	0.11
AAGTTTTG	-0.0961
GCGGGCGA	0.0564
AGATCTAC	-0.195
ATAGATGC	0.0432
CAGTCGGA	0.292
CTGAGTGC	-0.153
CTTGGTTA	0.0276

Sequence	PBM E-score
CTACTAAA	0.0158
GACCCGTA	0.0709
CCGGGCCA	0.0869
GTAAAGCA	-0.195
ATAAATAC	0.0349
AAGTAATG	-0.146
CGGACGGC	0.234
AATGCTAG	-0.261
ATGTGGCA	-0.0856
AGTTCGCC	-0.139
AAGCGATA	-0.286
CGGAGATC	0.159
CAACTCTA	-0.133
ACCTTATG	-0.186
GTCAATAA	0.0835
TATGATGA	-0.0881
CGCTACAA	0.0432
CATGATGG	-0.302
CGGCACAC	0.0721
ACAGCCTG	-0.309
AGGTAGCC	-0.211
GAAGCAGC	-0.148
CATATTGC	0.0446
CATCGGCC	0.263
ATAACACA	-0.107

Sequence	PBM E-score
AAGTAGTG	-0.168
ATTGTTGA	-0.236
ATGCAAGC	-0.182
ATAGATCA	-0.0273
AGTTAGAC	-0.146
GGTAGCAA	0.0542
TATCTAGA	-0.237
CTGGCAAC	-0.135
AGTCAGAA	-0.162
ACGAAGAG	-0.096
AGAGCTAA	-0.215
CCGGATGC	0.166
ATAGTTGA	-0.203
ATACTCTG	0.0573
AAGGAGAA	-0.179
CTTGATTC	0.0124
ACCCAACA	-0.144
ATCTAATC	-0.0546
CTAGTAAG	-0.147
CTTGAGTA	-0.0445
ACAGAAGG	-0.102
ACGCTACT	0.0893
ATTTATAA	0.123
AGATCATC	-0.152
CAGGCAGC	0.072

Sequence	PBM E-score
CCCCCCAC	-0.252
TACATGTA	0.046
CCAGACTA	-0.258
ATGGGACC	0.0255
CCAATTAG	-0.119
CTAGCGCA	-0.0859
CTCGGGAA	0.12
AGTAACAC	-0.0523
AAAAGATT	-0.0281
CAGAGCTA	-0.249
CGCACAAG	-0.0946
CACATTTC	0.0884
GGTGCCTA	0.0587
CAATACAA	-0.176
CATAACTA	0.05
GAGGAGAA	-0.0895
CAGGGAGC	-0.159
CTCAGTGC	0.0351
CGGGTACG	0.0618
CTTAGCCA	-0.0743
ACGGCACA	0.0761
AACGGACT	0.38
GTTTATTA	0.2
GTCCTCCA	-0.0381
ACATCCAA	-0.101

Sequence	PBM E-score
GGGCGGAA	0.241
CCTAGGAG	-0.21
TAATAGTA	-0.0237
ATCGGAAG	0.0789
CCGATCAA	0.267
GGATGAAC	-0.0337
GTCGGCCA	0.224
CCCTAAAA	0.0709
ACCAAGCG	0.103
ATGAAAAT	-0.0438
TAAGAGGA	-0.036
ATGGCCAC	-0.246
CAGTTCAG	-0.164
AAAATTAC	-0.0201
AAGGCGAG	-0.388
GTTGAAAA	0.1
CCGTCTAA	0.238
CTGTAAGA	-0.14
AACCGACT	0.0177
CGACTGCA	-0.13
AACAAACC	0.117
AGTGACTA	-0.0125
ACAGATGC	-0.224
CTCAAGAC	-0.143
ACCTATAG	-0.166

Sequence	PBM E-score
AGGCCATG	-0.246
GCAAAAAC	-0.0141
CCTCATAC	-0.0997
TCAGTAAA	-0.0602
CTCACCCC	0.155
GTTAACTA	0.00876
CGCCGCGA	0.289
CGTCCCAA	-0.247
CATCTCCC	0.012
GGGCACAA	0.117
ACGGTCCG	0.282
GTCGAAGA	-0.229
CGTAGACG	-0.163
CGACGTAC	-0.107
GCGTGTAA	-0.0616
CGCCCTAC	-0.0493
AACAACTC	-0.22
ATATGAGA	-0.0673
CCCATTAG	-0.361
ACTAATTG	-0.175
GAGAGTGC	-0.209
ACGTCGAG	-0.295
GAACGTGC	-0.258
CGTGCAAA	-0.0367
CCAGATCC	-0.138

Sequence	PBM E-score
GGCAAACA	-0.0004
ATAAACAT	-0.02
GAATTGGC	-0.104
GTATGCAA	-0.173
AACCGGTA	0.261
ACCGTGTA	-0.101
TAAGCTGA	-0.0108
CAATCCAC	-0.0417
CTGAAGAA	-0.291
CTCACCAC	-0.136
TAACCTAA	-0.0712
TCATATAA	-0.146
ATCGAATA	-0.0287
AGCTGCCT	-0.132
CCACCAGA	-0.337
TAAATTCA	-0.0238
GTACATCA	0.0592
CTCTAGAA	-0.315
GGGAGAGA	-0.307
AGCTTTAG	-0.226
CCTTGGGC	-0.0658
ATACAAGC	0.0419
CGACTGGC	0.152
ACATGTGA	-0.136
CTGTTGAC	-0.0838

Sequence	PBM E-score
CAGGGTGG	-0.174
ACTTTATA	0.122
CAAAATAA	-0.0195
AGATACGC	-0.0289
ACGTCCTC	-0.203
ATTCTACC	0.146
GATGACCA	-0.0925
CACATATC	0.0209
ATCTGAGA	-0.2
ATTGACTC	-0.0558
ATGTTCGA	-0.112
GTCAGGGA	-0.111
TACGGATA	0.071
GCTCGGTA	0.176
AGCATAAC	-0.11
ATAACGTC	-0.0673
GCTTGAAA	-0.11
GCGCTTCC	-0.00015
GCCCCAAA	0.0255
GGCAGACA	0.0519
TCGCTTCA	-0.158
CTTTGTCA	-0.036
ACCGCAAG	0.265
AGGAATGG	-0.299
GATCATAC	0.0167

Sequence	PBM E-score
AGACTTCC	-0.178
CGACCTAG	0.0545
AATACACC	0.314
CGGATTAC	-0.0316
CACGCCTA	-0.169
CCTAGAGC	0.0866
GGCTTTCA	-0.0306
CGTTGGAG	0.0782
GTTTCACA	-0.106
GACTGCCA	-0.106
GCCGCCCA	0.19
ACGTGCCC	-0.0848
ACGCACAA	-0.168
AGTCAAAG	-0.171
AATGAAGG	-0.0303
CCTCGATA	0.0491
AACAAACG	0.0203
GCTTCCTA	-0.0337
AGTCTGGA	0.00288
TCTCTACA	-0.177
GCGGTCCC	0.289
ATGAAAGC	-0.0893
AGGCACGA	-0.0317
CAGAGAAC	-0.138
TTAGGGAA	-0.144

Sequence	PBM E-score
GCGCACAC	-0.108
CGCAACGC	0.0842
ACAGTTTA	-0.158
GGGGATAC	0.27
CAAGTCAC	-0.0834
GAGCACCC	0.0316
CAGATTTC	-0.152
AGAGCGTA	-0.0201
CTTGTGCA	-0.134
ACCCTACC	-0.177
TACGATGA	-0.18
CCTGTAGC	0.102
GCCTTAAC	-0.0803
CTCTGGGC	-0.203
AGGGGTAA	-0.249
CGAGGCGC	0.108
AACACCGG	0.474
AACCGGGG	0.29
GACGCGCA	-0.043
AATGACGC	-0.0314
ATCGAGAG	-0.198
AGTGAGCA	-0.241
CGAACCGC	0.0972
TATCATAA	-0.101
CGACGCGC	0.182

Sequence	PBM E-score
GACTAGTA	0.0372
ACCCCCCG	0.204
ACTATTTC	0.0448
ACAAGCTC	-0.0867
CGAAGGAC	0.0821
GGCCAGCC	-0.151
CACTGTCG	-0.0737
AATCAGAA	-0.0204
GGACTGAC	0.0533
AATTTGAG	-0.0983
ATCTCCAT	0.0527
ATTTATTA	0.0961
TTTGAAAA	-0.105
TGGACAAA	-0.00634
CCACTGAC	-0.182
CGTTGCAC	0.0549
GATATCAC	0.0605
CGCACCGA	0.272
ACAGTTCG	0.0995
AATTCGAC	-0.268
CCGTTTCG	0.202
ACGCGTCG	0.115
CGATTTTC	0.115
CGCGTGTA	-0.0544
TCTGTACA	0.00856

Sequence	PBM E-score
CCTAGTCC	0.0326
AGATCTGA	-0.24
AAGGCGGG	0.201
CTCAGCCC	-0.0597
GTCGCTCA	-0.256
TCCATCCA	-0.254
TCCTTCAA	-0.142
ACGATGTG	-0.157
CATTCTCC	-0.0874
AGCTACGA	-0.16
GATTGCAC	0.0164
CGAATTGA	-0.12
TGTGAAAA	-0.163
AAGGAACT	-0.0459
ACATATAG	0.0859
CTCCACCC	-0.148
GATAGATA	0.0126
GATCAGGA	-0.26
ACAGGACT	-0.0874
AAGATGGT	-0.135
ACGTAAAG	-0.0611
CCTCTGCG	-0.193
AGTATTGA	-0.238
AAACGACA	-0.183
GCGAGAGA	-0.16

Sequence	PBM E-score
CGTTAGAG	-0.00857
ATGTGGTA	-0.222
ACCTCCAC	0.0725
GAGGACAC	0.0562
ACTGATCT	-0.232
ACATGCGA	-0.0766
GCGGCAAC	0.107
GCTATCCA	-0.126
TCGTCAGA	0.0517
GGCGAGGA	-0.212
AGGATAGG	0.0311
GAGTTATA	0.14
CCCTTTTA	-0.2
CGGACTAG	0.195
GCCATACC	0.0141
CATCGCCG	0.264
ACCCCTTC	-0.0875
CCACCGGC	0.322
GATTTTGC	-0.18
GCGACACC	0.161
CGTCTTTA	0.0276
CCCTTGCC	-0.194
ATTCTTAA	-0.122
CCGGGAAC	0.199
ATCGGGTC	0.224

Sequence	PBM E-score
CAGCACTC	-0.063
GGACTGCC	-0.114
ATTAGCAC	0.114
CCGACCGA	0.314
CTACCCCC	0.169
GAGCCGCA	-0.0194
AGGTACCG	0.284
CGAATTGC	0.0158
GGACTATA	0.256
GAATCTGC	0.0388
TCGCGGAA	0.0959
AAGTAGCC	-0.125
GACGTGGA	-0.0377
GCGAATTA	0.0761
AGAGAGAC	-0.241
AACATTTC	-0.226
GAGCTTGC	-0.0925
ACAATTGG	-0.222
CCGACTCC	0.314
